# Reference: PubChem BioAssay AID488969 (Vanderbilt High Throughput Screening Facility, 2010)
# Over roughly 110,000 compounds, “z-score” has its median near -0.1; the highest 2% begin near 2. The list shows a part of the results. Active and inactive are the calls of the source.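 Rule for the calls: active = z-score in the third read window above 3 or below -3; inactive = the rest.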
# Target: Metabotropic glutamate receptor 8 (Rattus norvegicus) (UniProt P70579)
# Assay: rat mGluR8 modulators via GIRK flux, primary screen, cell-based, thallium flux, HTS (AID 488969)
# Conditions: HEK293 rat mGluR8, GIRK (G protein-gated inwardly rectifying potassium channel) thallium flux, FluoZin2; at 10 µM; stronger effect = higher value; submaximal glutamate (EC20) added with thallium
# Sequence of UniProt P70579 (P70579 whole entry, looked up): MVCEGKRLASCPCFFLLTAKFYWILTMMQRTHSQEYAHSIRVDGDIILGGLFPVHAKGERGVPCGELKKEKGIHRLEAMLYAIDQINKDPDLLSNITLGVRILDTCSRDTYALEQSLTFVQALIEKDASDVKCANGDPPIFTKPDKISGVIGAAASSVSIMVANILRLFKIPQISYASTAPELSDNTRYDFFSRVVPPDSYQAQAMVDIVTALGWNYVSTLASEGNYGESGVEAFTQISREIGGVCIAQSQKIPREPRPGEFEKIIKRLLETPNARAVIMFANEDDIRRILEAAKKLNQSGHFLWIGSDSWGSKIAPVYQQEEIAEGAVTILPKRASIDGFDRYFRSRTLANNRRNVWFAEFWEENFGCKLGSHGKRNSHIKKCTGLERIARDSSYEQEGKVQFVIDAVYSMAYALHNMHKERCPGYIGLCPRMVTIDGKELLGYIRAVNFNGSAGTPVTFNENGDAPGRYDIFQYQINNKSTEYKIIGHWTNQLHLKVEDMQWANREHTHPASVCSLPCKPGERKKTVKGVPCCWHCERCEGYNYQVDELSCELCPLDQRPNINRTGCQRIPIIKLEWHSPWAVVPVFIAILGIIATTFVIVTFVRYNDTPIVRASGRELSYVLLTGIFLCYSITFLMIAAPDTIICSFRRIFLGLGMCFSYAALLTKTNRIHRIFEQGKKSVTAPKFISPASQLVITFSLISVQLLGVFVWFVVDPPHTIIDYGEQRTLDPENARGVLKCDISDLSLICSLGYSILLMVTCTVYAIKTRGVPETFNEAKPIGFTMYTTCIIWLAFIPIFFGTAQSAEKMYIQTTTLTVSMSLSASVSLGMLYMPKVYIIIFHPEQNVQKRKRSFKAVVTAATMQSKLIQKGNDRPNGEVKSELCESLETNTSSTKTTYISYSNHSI
row,Structure (SMILES),z-score
1,O=C(c1cc([N+](=O)[O-])cc([N+](=O)[O-])c1)N1CCOCC1,-0.155
2,O=C(COc1ccc(Cl)cc1Cl)N/N=C/CCc1ccccc1,-0.096
3,CCOc1cccc(C2NC(=S)NC(C)=C2C(=O)Nc2ccccc2)c1 (stereo unspecified),-0.218
4,CC1=NN(c2ccccc2)C(=O)C1N=Nc1ccccc1 (stereo unspecified),0.244
5,O=S(=O)(Nc1cccnc1)c1cccc(Cl)c1,-0.26
6,N#Cc1c(N)oc(-c2cccs2)c1-c1cccs1,-0.0686
7,CCOC(=O)N1CCC(n2c(SCC(=O)OCc3ccccc3)nc3ccsc3c2=O)CC1,-0.557
8,COc1cccc(/C=C2\N=C3CCCCCN3C2=O)c1,-0.996
9,CN(Cc1ccccc1)S(=O)(=O)c1ccc2c(c1)OCCO2,-0.128
10,COc1ccc(N(C(=O)Cn2nnc(-c3ccc(Cl)cc3)n2)C(C(=O)NCC2CCCO2)c2ccc(C)cc2)cc1 (stereo unspecified),-0.126
11,Cc1nonc1NC(=O)OC1CCCCC1,0.0658
12,O=C(CN1CCN(C(=O)c2ccco2)CC1)Nc1cc(Cl)ccc1Cl,1.13
13,COCCN(C(=O)CSc1nnc2cc(C)c3ccccc3n12)c1c(N)n(Cc2ccccc2)c(=O)[nH]c1=O,0.689
14,CCCCn1nnnc1NCc1ccc(N(CC)CC)cc1,0.144
15,CC1=N/C(=C/c2ccc([N+](=O)[O-])cc2)C(=O)N1c1ccc(Cl)cc1Cl,0.0895
16,CCCCn1c(=O)[nH]c(=O)c2c1nc(-c1ccc(-c3ccccc3Br)o1)n2CC,-0.192
17,COC(=O)c1ccc(NC(=O)c2ccccc2SC)cc1,-0.17
18,Cc1cc(Nc2cnc3ccccc3n2)n(-c2ccccc2)n1,-0.592
19,O=C(Nc1nccs1)c1cc2c(s1)CCCCC2,0.101
20,O=C(COC(=O)CCc1c[nH]c(=O)[nH]1)Nc1ccccc1,-0.115
21,CCCNC(=O)Nc1ccc2c(c1)N(C)C(=O)c1ccccc1S2,-0.238
22,COc1ccc(/C(C)=N/Nc2ccc(C(=O)O)cc2)c(OC)c1,0.0316
23,Fc1ccc(Nc2nc(Oc3ccc4c(c3)OCO4)nc(N3CCOCC3)n2)c(F)c1,0.656

row,Structure (SMILES),z-score
1,Cc1n[nH]c(C)c1S(=O)(=O)NCCc1ccc(Cl)cc1,-0.418
2,COc1ccccc1C(CC(=O)Nc1ccc(Cl)cc1)c1ccc(OC(C)C)cc1 (stereo unspecified),-0.26
3,N#Cc1ccccc1Sc1ccccc1C(=O)Nc1ccc2ccccc2c1,0.199
4,CCSc1nnc(NC(=O)COc2ccccc2)s1,0.00217
5,Clc1ccccc1CSc1nnc(Cn2cnc3ccccc32)n1-c1ccccc1,0.172
6,Cc1nn(-c2ccccc2)c(C)c1/C=N/NC(=O)CSc1nnc(SCc2ccc(Cl)cc2)s1,-0.324
7,Cc1ccc(NC(=S)NCCN2CCOCC2)cc1,-0.0577
8,O=C1CC(Nc2ccc(N3CCOCC3)cc2)C(=O)N1CCc1ccccc1 (stereo unspecified),0.0429
9,CCCSc1nc2sc3c(c2c(=O)[nH]1)CCN(Cc1ccccc1)C3,active: 3.04
10,COc1ccccc1C1C=C(c2ccccc2)Nc2nnnn21 (stereo unspecified),-0.0457
11,O=S(=O)(Nc1cccnc1)c1ccc(C2CCCCC2)cc1,-0.42
12,Cc1ccc(C(=O)Nc2nnc(C3CCCCC3)s2)o1,-0.163
13,O=C(Cc1ccccc1)N(c1ccc(F)cc1)C1C=CS(=O)(=O)C1 (stereo unspecified),-0.0671
14,COc1ccc(CCNC(=O)CSc2nc(C)cs2)cc1,0.122
15,COc1ccc(C2CCCN2C(=O)Nc2ccc(C)c(C)c2)cc1OC (stereo unspecified),-1.77
16,CC(=O)Nc1ccc(S(=O)(=O)Oc2ccc(/C=N/NC(=O)c3ccc(Cl)cc3)cc2)cc1,-0.0274
17,COc1ccc(CC(=O)N2CCCc3ccccc32)cc1OC,0.0732
18,O=S(=O)(NCCOCC(F)(F)C(F)F)c1ccc2oc3ccccc3c2c1,-0.151
19,Cc1cc2nc(-c3ccc(SCc4ccc(C#N)cc4)nc3)[nH]c2cc1C,-0.494
20,NC(=O)c1oc2ccc(Cl)cc2c1NC(=O)CN1CCOCC1,-0.0772
21,Cc1c(N=Cc2c(O)n(C)c(=O)c3ccccc23)c(=O)n(-c2ccccc2)n1C,-0.221
22,CCOC(=O)CC(NC(=O)c1ccc(C)cc1)c1ccc(C)cc1 (stereo unspecified),-0.334
23,CCS(=O)(=O)N1CCCC(C(=O)NC2CCCC2)C1 (stereo unspecified),0.574

row,Structure (SMILES),z-score
1,Cc1cc(C)c2oc(-c3cccc(NC(=O)c4ccc(F)cc4)c3)nc2c1,-0.0725
2,CCOC(=O)C1=C(c2ccccc2)N=c2s/c(=C\c3cc(OC)c(OC)c(OC)c3)c(=O)n2C1c1cccs1 (stereo unspecified),-0.151
3,CCOC(=O)c1sc(NC(=O)c2ccc(Br)o2)cc1C,0.388
4,Cc1cc2cc(CN(Cc3cccs3)S(=O)(=O)c3ccc4c(c3)OCCO4)c(=O)[nH]c2cc1C,-0.0967
5,CC(C)OC(=O)/C(=C\c1ccc2c(c1)c1ccccc1n2C)NC(=O)c1ccccc1,-0.366
6,COc1ccccc1N(C)S(=O)(=O)c1ccc(C(=O)NCC(C)C)cc1,0.45
7,CC1CN(C(=O)c2scc3c2OCCO3)CC(C)O1 (stereo unspecified),0.297
8,Cc1c(C(=O)Oc2ccc(F)cc2)sc2ncn(Cc3cccc(F)c3)c(=O)c12,-0.113
9,[N-]=[N+]=CC(=O)CNC(=O)[C@@H](Cc1ccccc1)N1C(=O)c2ccccc2C1=O,-0.0201
10,Cc1ccc(C(=O)CCNc2ccccc2)o1,-0.233
11,COc1ccc(Nc2ccc(Nc3ccc(OC)cc3)nn2)cc1,0.0599
12,COc1ccc(N2C(=O)CC(Sc3nc(C)cc(C)c3C#N)C2=O)cc1 (stereo unspecified),-0.705
13,Cc1nc(Cl)sc1C(=O)Nc1cccc(Cl)c1C,-0.328
14,CSc1nc(N(C)NC(=O)c2ccccc2)c2ccccc2n1,-0.265
15,O=C(O)COc1ccc(-c2nnn(CC(=O)O)n2)cc1,0.352
16,CC(=O)NC1(c2ccc(F)cc2)CCN(C(=O)Nc2ccc(F)cc2F)CC1,0.106
17,COc1ccc(CCNC(=O)C2CC(c3cccc([N+](=O)[O-])c3)=NO2)cc1 (stereo unspecified),0.0116
18,COc1ccccc1NC(=O)Cc1noc(CN(C)Cc2cccs2)n1,-0.0638
19,COc1ccc(-c2noc(-c3ccc4c(c3)OCO4)n2)cc1,-0.149
20,O=C(O)COc1cccc2ccccc12,-0.112
21,CCn1c(SCC(=O)N2CCc3ccccc3C2)nc2sc(C)c(C)c2c1=O,-0.411
22,Cn1c2c(c(=O)n(C)c1=O)C1(C(=O)Nc3ccccc31)C(C#N)=C(N)O2 (stereo unspecified),-0.176
23,CS(=O)(=O)N1CCc2cc(S(=O)(=O)Nc3ccc4oc5c(c4c3)CCCC5)ccc21,-0.171

row,Structure (SMILES),z-score
1,Cc1ccnc(NS(=O)(=O)c2ccc(CC(C)C)cc2)c1,-0.146
2,Cc1cc2ncn(S(=O)(=O)N(C)C)c2cc1C,-0.271
3,CCc1nc2cc(Cl)c(Cl)cc2[nH]1,2
4,O=C(CSc1nc2c(c(=O)n1-c1ccc(F)cc1)SCC2)NCc1ccco1,-1.12
5,CC(C)c1ccc(-c2nc(N3CCCCC3)[nH]c(=O)c2C#N)cc1,-0.198
6,O=C(Nc1ccc(Cl)cc1)c1ccc2c(c1)OCO2,-0.277
7,CCOC(=O)c1ccc(NC(=O)Cn2nnc(-c3ccccc3)n2)cc1,-0.684
8,COc1ccc(C(=O)Nc2ccc(NC(=O)c3cccs3)cc2)cc1Cl,-0.162
9,COCCn1c(SCc2nnc(-c3ccc(OC)c(OC)c3)o2)nc2sc3c(c2c1=O)CCC3,-0.833
10,COCCNC(=O)CSc1nc2cc(OC)c(OC)cc2c(=O)n1CCC1=CCCCC1,-0.619
11,Cc1ccc(C2CC(=O)C=C(O)C2)cc1 (stereo unspecified),-0.356
12,CCN(CC)S(=O)(=O)c1ccc2c(c1)nc(SCC(=O)NC1CC1)n2-c1ccccc1OC,-0.5
13,CC(C)c1ccc(S(=O)(=O)c2nnn3c2nc(N2CCCCC2)c2ccccc23)cc1,-0.645
14,CC(NC(=O)c1cc(-c2cccs2)on1)c1ccccc1 (stereo unspecified),-1.04
15,O=c1cc(N2CCCC2)[nH]c(=O)n1-c1ccc(Cl)cc1,-0.566
16,CC(C)NC(=O)COC(=O)c1cc(=O)[nH]c2ccccc12,-0.16
17,Cc1cc(=O)oc2cc(OC(C)C(=O)N3CCOCC3)ccc12 (stereo unspecified),1.51
18,CC(C)(C)C(=O)Nc1ccccc1C(=O)Nc1cc(Cl)ccc1Cl,0.0855
19,Cc1nnc(SCCn2c(Br)nc3c2c(=O)[nH]c(=O)n3C)s1,-0.581
20,CCCCN(CC)c1nc(-c2ccncc2)nc2ccccc12,-0.000703
21,Cc1ccc(C(NC(N)=O)c2ccccc2C)cc1 (stereo unspecified),-0.491
22,COc1ccnc(Oc2ccc(F)cc2)c1C(=O)N/C=N/OCc1c(Cl)cccc1Cl,-0.269
23,COc1cc(CNc2ccccc2SC)ccc1O,1.58

row,Structure (SMILES),z-score
1,Cc1cc(C)n2nc(SCc3nnc(SCc4ccccc4)s3)nc2n1,-0.155
2,CCOC(=O)C(C)Sc1nnc(NC(=O)c2cccc([N+](=O)[O-])c2C)s1 (stereo unspecified),0.84
3,O=C(NC(=S)Nc1ncccn1)c1ccccc1Cl,-0.109
4,C=COCCNC(=O)C(=O)NC(C)C,-0.168
5,COc1cc(OC)c(C(=O)COc2ncnc3ccccc23)c(OC)c1,0.381
6,CC(C)(C)NC(=O)CSc1ccc(C(C)(C)C)cc1,-0.513
7,O=C1OC(c2ccccc2)/C(=C(/O)c2ccc(Cl)cc2)C1=O (stereo unspecified),-2.54
8,COc1ccc(C(=O)NC(=S)NNC(=O)c2cnccn2)cc1,0.0423
9,O=C(Nc1ccc(Cl)c(S(=O)(=O)N2CCOCC2)c1)c1ccccc1-c1ccc(C(F)(F)F)cc1,0.095
10,COc1cccc(N2CCN(C(=O)c3[nH]c(C)c(C(C)=O)c3C)CC2)c1,0.189
11,COc1ccc(C(=O)N2CC3(CC(c4cccc([N+](=O)[O-])c4)=NO3)C[C@H]2C(=O)NCC(N)=O)cc1 (stereo partly specified),-0.293
12,O=C(CC12CC3CC(CC(C3)C1)C2)Nc1cccc2ncccc12,-0.494
13,O=C(COc1ccc(Br)cc1Br)NC(=S)N1CCCc2ccccc21,active: 4.66
14,C/C(CC(=O)Nc1ccccc1[N+](=O)[O-])=N\NC(=O)COc1ccccc1C,0.136
15,CC(=O)N1CCc2ccc(S(=O)(=O)N3CCN(C)CC3)cc21,-0.0793
16,O=C(c1ccccc1)c1ccc(Oc2ncccn2)cc1,-0.321
17,Cc1ccc(NS(=O)(=O)c2ccc(C3CCCCC3)cc2)cc1,-0.718
18,CCC(C)NC(=O)/C=C1\Sc2ccccc2NC1=O (stereo unspecified),-0.156
19,O=C(O)CSc1nnc(CNc2ccc(Cl)cc2)n1Cc1ccccc1,-0.133
